# Hit rate of the full screen: of about 420,000 compounds, about 50,000 (12%) were called active. Inconclusive means that the source gave no clear call. Such entries were picked first, then a sample of the others. The call rests on the fitted dose curve; in most records, active means well fitted inhibition curve with a large enough effect; inconclusive means small, poorly fitted or top-dose-only effect; inactive means flat fitted curve, though single readings scatter. Potencies of inconclusive entries are left out as doubtful fits.
# Experiment: qHTS for Inhibitors of human tyrosyl-DNA phosphodiesterase 1 (TDP1): qHTS in cells in presence of CPT; further: nearly all actives have a fitted effect of over 55% in size
# Conditions: chicken DT40 Tdp1-/-;hTDP1 cells + 20 nM CPT, ATP luminescence, 48 h; activity change, negative = growth inhibition: at 46.2 µM (top of the series) unless noted
# Outline: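 Cell growth measured by CellTiter-Glo luminescence after a minimum 48 h, 37 C compound exposure with 20 nM CPT in Tdp1-knockout DT40 cells stably expressing hTDP1, seeded 400/well; qHTS titration format.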
# On the % scale 0 is the no-effect control and ±100 the full control effect; potency means the concentration at half of the fitted maximal effect; tags describe the fitted curve by direction and shape.
SMILES,Potency,"activity change, negative = growth inhibition"
CCNc1nc(ON=C(C)C)nc(N(C)C)n1,"inconclusive [inhibitor, single point]",–
Cc1c(C#N)sc(C(N)=O)c1C,inactive,–
Cc1cc(C(=O)CSc2nc3ccccc3[nH]2)c(C)n1CC1CCCO1 (stereo not drawn),active: 7.31 µM,–
N/C(=N\OC(=O)c1ccc(Cl)c(Cl)c1)c1cccc(CSc2ccccn2)c1,inactive,–
CC(C)Cn1c2nc3ccccc3nc2c2c(=O)n(CCN3CCOCC3)cnc21,"inconclusive [inhibitor, single point]",–
Cc1ccc(-c2nn(-c3ccccc3)cc2/C=C(\C#N)C(=O)NCc2ccccc2)cc1,inactive,–
COc1ccc(-c2cc(C(F)(F)F)nc(NCCc3ccccc3)n2)cc1,active: 23.1 µM,–
COc1ccc(CC(=O)OC(C)C(=O)Nc2ccc(Cl)cn2)cc1 (stereo not drawn),"inconclusive [inhibitor, single point]",–
CCn1cc(C(=O)NCC2CCCO2)c(=O)c2cc(S(=O)(=O)N(C)C)ccc21 (stereo not drawn),inactive,–
CN1OC[C@@H]2CN(Cc3ccc(Cl)cc3)[C@H](c3cccc(Br)c3)C[C@@H]21,"inconclusive [inhibitor, partial curve]",–
COCc1[nH]nc2c1C(C1C=CCCC1)C(C#N)=C(N)O2 (stereo not drawn),active: 13 µM,–
O=C(NCCc1ccccc1)c1cc2sccc2n1Cc1ccc(F)cc1,inactive,–
Cc1ccc(S(=O)(=O)N2C[C@H]3N(C(=O)OC(C)C)N(C(=O)OC(C)C)C[C@H](OC(=O)NCc4ccccc4)[C@@]3(O)C2)cc1,active: 20.6 µM,–
CCN(C(=O)C1CCN(c2nc(-c3ccc(OC)cc3)no2)CC1)c1ccc(OC)cc1,"inconclusive [inhibitor, single point]",–
COc1ccc(CC(=O)Nc2ccc(-c3cn4cccc(C)c4n3)cc2)cc1OC,"inconclusive [inhibitor, partial curve, poor fit]",–
Cc1c(-c2ccc(Cl)cc2)c(=O)oc2c(CN3CCOCC3)c(O)ccc12,"inconclusive [inhibitor, single point]",–
NNC(=O)c1oc2nc(-c3ccco3)cc(-c3ccco3)c2c1N,"inconclusive [inhibitor, single point]",–
Cc1ccc(/C=C2\SC(=S)N(CCCC(=O)Nc3cccnc3)C2=O)cc1,"inconclusive [inhibitor, single point]",–
COC(=O)Nc1ccc(OCc2ccccc2)cc1,inactive,–
COC(=O)c1c(SCC(=O)Nc2cc(F)ccc2F)[nH]c2ccc(C)cc2c1=O,active: 8.2 µM,–
CCN(CC)c1ccc(S(=O)(=O)N2CCCCC2)cc1NC(=O)C1CSC2(C)CCC(=O)N12 (stereo not drawn),"inconclusive [inhibitor, single point]",–
CCN1CCN(c2ccc(S(=O)(=O)N3CCCCC3)cc2NC(=O)c2cccc(F)c2)CC1,inactive,–
CC(=O)Nc1ccc(NC(=O)c2cc(-c3cc(C)cc(C)c3O)n[nH]2)cc1,active: 11.6 µM,–
CC(CCc1ccccc1)NC(=O)CN1CCOc2ccccc21 (stereo not drawn),"inconclusive [inhibitor, single point]",–

SMILES,Potency,"activity change, negative = growth inhibition"
CCN1CCN(c2ncnc3c2sc2nc(N4CCOCC4)c4c(c23)CCC4)CC1,"inconclusive [inhibitor, full curve, poor fit]",–
C=CCOc1ccccc1/C=N/NC(=O)Cc1ccccc1,inactive,–
Oc1ccc(N=Nc2ccccc2C(F)(F)F)c2cccnc12,active: 0.82 µM,–
Cc1[nH]nc2c1C(c1cn[nH]c1-c1ccc(F)cc1)C(C#N)=C(N)O2 (stereo not drawn),"inconclusive [inhibitor, single point]",–
CCOc1ccc(NC(=O)CN(C)C(=O)Cn2c(=O)cnc3ccccc32)cc1OCC,inactive,–
Cn1c2ccccc2c(=O)c2ccc(C#CC3(N)CCCCC3)cc21,inactive,–
COC(=O)C=CSC(=S)C1CCCC1=N (stereo not drawn),inactive,–
NS(=O)(=O)c1ccc(CCNC(=O)c2ccc(Cn3c(=O)[nH]c4ccccc4c3=O)cc2)cc1,inactive,–
COc1ccc(C(CNC(=O)c2cc3ccccc3o2)N2CCCCC2)cc1 (stereo not drawn),"inconclusive [inhibitor, single point]",–
O=C(c1ccc(Cl)cc1)N1CCC(O)(CSc2ccccc2)CC1,"inconclusive [inhibitor, single point]",–
CCN(CC)CCCNC(=O)c1ccc(CS(=O)(=O)c2ccccc2OC)o1,inactive,–
CNC(=O)c1c(NC(=O)c2ccc(S(=O)(=O)N3CCCC(C)C3)cc2)sc2c1CCC2 (stereo not drawn),active: 20.6 µM,–
S=C(NCC1CC1)N/N=C/c1ccccc1Cl,"inconclusive [inhibitor, single point]",–
O=C(NCCOc1ccc(F)cc1)C1CCC(=O)N(Cc2ccc(Cl)cc2)C1 (stereo not drawn),–,inconclusive: -32.3% [inhibitor]
CC(C)(C)Sc1ccc([N+](=O)[O-])cc1C(=O)Nc1ccncc1,inactive,–
O=C(NCC(c1ccc(F)cc1)N1CCOCC1)c1ccc(C(=O)c2ccccc2)cc1 (stereo not drawn),"inconclusive [inhibitor, single point]",–
Cc1ccc(S(=O)(=O)c2nc(Nc3nccs3)sc2Cl)cc1,"inconclusive [inhibitor, single point]",–
Cc1ccc(NC(=O)c2ccc([N+](=O)[O-])o2)cc1C,active: 25.9 µM,–
CCCCNC(=O)CCCCC(=O)N/N=C/c1ccccc1Cl,inactive,–
COc1ccc(S(=O)(=O)N2CCOCC2)cc1NC(=O)CN(C)Cc1c(F)cccc1Cl,"inconclusive [inhibitor, single point]",–
O=C1CC(N2CCN(C3CC(=O)N(CCc4ccccc4)C3=O)CC2)C(=O)N1CCc1ccccc1 (stereo not drawn),"inconclusive [inhibitor, partial curve]",–
CCCCOc1ccc(C(=O)Nc2onc3c2CCCC3)cc1,"inconclusive [inhibitor, single point]",–
Cc1ccc(NC(=O)C2CCCN(S(=O)(=O)c3ccc(F)cc3)C2)cc1 (stereo not drawn),active: 23.1 µM,–
CCC(C)[C@@H](CN)NCC1(c2ccccc2)CC1 (stereo partly drawn),inactive,–
